Assay results reported in US20020123504A1, “Lactose-free, non-hygroscopic and anhydrous pharmaceutical compositions of descarboethoxyloratadine” (SEPRACOR INC., priority 1997, published 2002).
Several values for one entry are separate records, joined by “and”; a condition that tells them apart may be missing. Identical values can stand only once.

Experiment: Reactivity with lactose under accelerated storage (60° C. at 75% RH)
[1] = 4 weeks 60° C./75% RH, 80% lactose
[2] = 4 weeks 60° C./75% RH, 80% lactose/5% H2O

Compound	% Initial [1]	% Initial [2]	% Initial (4 weeks 60° C./75% RH, neat)	% Initial (1 week 60° C./75% RH, 80% lactose/5% H2O, particle sizes reduced with mortar and pestle)	% Initial (4 weeks 60° C./75% RH, 80% high surface area Fast Flo lactose)
CCOC(=O)N1CCC(=C2c3ccc(Cl)cc3CCc3cccnc32)CC1 [Loratadine, loratadine]	100.33%	100.37%	99.35%	–	–
Clc1ccc2c(c1)CCc1cccnc1C2=C1CCNCC1 [DCL, 8-chloro-6,11-dihydro-11-(4-piperidylidene)-5H-benzo[5,6]cyclohepta[1,2-b]pyridine]	68.58%	49.57%	99.70%	90.35%	46.95% and 49.52%
